This assay addresses T1, GST‐BmVreteno‐L (Bombyx mori).
T1 construct: BmVreteno Long isoform, Bombyx mori; pGEX-6p vector, 3C site between GST and BmVreteno; the purified protein was associated with nucleic acids; also called GST‐3C‐BmVreteno; full‐length BmVreteno‐L; source: E. coli BL21 DE3 codon+, purified (GSTrap, gel filtration); not shown: GST, N-terminal, kept
T1 chain: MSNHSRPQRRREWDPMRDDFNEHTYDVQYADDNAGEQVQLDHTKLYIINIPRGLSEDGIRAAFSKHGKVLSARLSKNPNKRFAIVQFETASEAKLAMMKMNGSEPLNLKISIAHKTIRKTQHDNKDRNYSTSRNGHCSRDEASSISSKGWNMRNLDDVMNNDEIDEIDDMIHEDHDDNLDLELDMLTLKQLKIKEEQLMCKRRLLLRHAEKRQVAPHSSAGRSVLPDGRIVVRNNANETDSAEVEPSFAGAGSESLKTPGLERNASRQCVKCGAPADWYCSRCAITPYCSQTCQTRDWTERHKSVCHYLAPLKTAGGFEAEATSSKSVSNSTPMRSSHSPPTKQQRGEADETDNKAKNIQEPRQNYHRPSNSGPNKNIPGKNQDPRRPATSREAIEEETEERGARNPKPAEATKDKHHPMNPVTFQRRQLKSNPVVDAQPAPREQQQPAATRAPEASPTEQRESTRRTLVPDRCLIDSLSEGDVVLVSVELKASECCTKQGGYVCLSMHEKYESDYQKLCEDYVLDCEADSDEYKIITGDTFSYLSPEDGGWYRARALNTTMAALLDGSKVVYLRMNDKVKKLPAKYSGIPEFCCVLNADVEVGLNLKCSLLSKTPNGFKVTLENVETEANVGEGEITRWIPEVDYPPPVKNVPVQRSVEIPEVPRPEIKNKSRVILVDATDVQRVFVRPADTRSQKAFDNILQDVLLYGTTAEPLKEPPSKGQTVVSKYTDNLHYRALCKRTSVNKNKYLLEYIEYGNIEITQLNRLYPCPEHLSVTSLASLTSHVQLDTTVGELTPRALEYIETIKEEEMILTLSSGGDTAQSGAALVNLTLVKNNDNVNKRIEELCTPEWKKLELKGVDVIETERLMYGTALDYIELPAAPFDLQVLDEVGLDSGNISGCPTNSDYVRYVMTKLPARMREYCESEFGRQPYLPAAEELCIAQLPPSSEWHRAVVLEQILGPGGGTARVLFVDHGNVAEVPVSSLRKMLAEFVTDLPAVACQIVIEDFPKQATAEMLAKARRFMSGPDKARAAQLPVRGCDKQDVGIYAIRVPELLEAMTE
Kind of assay: condition: 10 μM of His‐BmGtsf1L with 5 μM of GST‐BmVreteno; pull-down; GSH pull-down: 5 μM GST-BmVreteno (or fragment, variant) on Glutathione Sepharose 4B with 10 μM His-BmGtsf1L, 2 h 4°C, PBS with 0.1% Triton-X100; SDS-PAGE, Coomassie (Fig 5G also anti-His Western blot); both purified. For orientation: Immunoblotting shows a protein as a band on a membrane.

From publication PMC10711660, “An extended Tudor domain within Vreteno interconnects Gtsf1L and Ago3 for piRNA biogenesis in Bombyx mori” (The EMBO Journal, 2023) come the findings set out here.

Results are given in words; binding and its absence hold for the method and conditions named. Tags and fused reporters may be left off the sequences shown.

B1: His‐BmGtsf1L‐W99A (protein)
chain: MDDPFVSCPYNPIHRVPRSRLQRHIVKCEWINPTMIACPYNATHRYTQEDMKFHVLNCPSKTSIFPIEKPPKTVASITTPKIILQKEYLPETDPNHEIADD
As for B1, the binding result is reported as “no binding”.
